PubChem BioAssay AID1671193 (National Center for Advancing Translational Sciences (NCATS), 2021)
“And” between values parts separate entries of the source, which are not always exact repeats. Equal values may be shown once. Hit rate of the full screen: of about 150,000 compounds, about 180 (0.12%) were called active. Inconclusive means that the source gave no clear call. Such entries were picked first, then a sample of the others. The call rests on the fitted dose curve; in most records, active means well fitted cell-killing curve with a large enough effect; inconclusive means small, poorly fitted or top-dose-only effect, or effect the other way; inactive means flat fitted curve, though single readings scatter. A potency beside an inconclusive call is a rough fit, not a confirmed value.

Experiment: GF-AFC viability counterscreen for inhibitors of alpha-synuclein gene (SNCA) expression; further: nearly all actives have a fitted effect of over 30% in size
Conditions: HEK-293-SNCA-luc viability, GF-AFC fluorescence, 24 h; series mostly up to 57.1 µM
In short: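 Cytotoxicity counterscreen: after 24 h compound treatment of genome-edited SNCA-luciferase HEK-293 cells, live-cell protease substrate GF-AFC read by fluorescence after 30 min; activity scaled between DMSO (0%) and medium-only (-100%), curves Hill-fitted.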
Potency means the concentration at half of the fitted maximal effect; tags describe the fitted curve by direction and shape.

**Q.** Which Potency does the source give for `COc1ccc(C(=O)Nc2ccc(-c3nnc4n3CCCC4)cc2)cn1` here?
**A.** inactive

**Q.** For `CCOC(=O)c1ccc(NC(=O)CCc2c(C)nc3c(c(C)nn3C)c2C)cc1`, which Potency is on record?
**A.** inconclusive: 0.282 µM [rising, full curve]

**Q.** For `CCC1Oc2ccc(NC(=O)COc3ccccc3)cc2CN(Cc2cc(F)cc(F)c2)C1=O` (stereo unspecified), which Potency is on record?
**A.** inactive

**Q.** With `Cc1ccc(C)c(-n2nc(-c3c(C)nc4scc(CC(=O)NCc5ccco5)n4c3=O)cc2C)c1` as the compound, how does the Potency read?
**A.** active: 8.91 µM

**Q.** With `COc1ccc(-c2nnn3c2nc(N2CCCC(C)C2)c2ccccc23)cc1` (stereo unspecified) as the compound, how does the Potency read?
**A.** inconclusive: 10 µM [rising, partial curve, poor fit]

**Q.** With `Cc1cccc(-c2noc([C@@H]3C[C@@H](O)CN3Cc3ccccn3)n2)c1` as the compound, how does the Potency read?
**A.** inactive

**Q.** With `COCc1ccc2c(c1)c(OC(C)(C)C(=O)NC(C)C)nn2Cc1cccc(OC)c1` as the compound, how does the Potency read?
**A.** inactive

**Q.** Which Potency does the source give for `CN(C)S(=O)(=O)NCCC1CN(c2cnn(C)c(=O)c2)CCO1` (stereo unspecified) here?
**A.** inactive

**Q.** With `COc1cccc(N2CCN(C(=O)C3CCC(CNS(=O)(=O)c4ccc(Br)s4)CC3)CC2)c1` (stereo unspecified) as the compound, how does the Potency read?
**A.** inactive

**Q.** With `CC(C)(C)c1cc(C(C)(C)C)c2oc(=O)c(-c3nc4ccccc4[nH]3)cc2c1` as the compound, how does the Potency read?
**A.** inconclusive: 5.01 µM [rising, single point]

**Q.** With `COCCC(=O)N1CCCC(C(=O)N2CCN(c3ccccn3)CC2)CCNC(=O)CC1` (stereo unspecified) as the compound, how does the Potency read?
**A.** inactive

**Q.** With `COc1ccc2c(c1)c(C1=C(c3c[nH]c4ccccc34)C(=O)NC1=O)cn2CCCN(C)C` as the compound, how does the Potency read?
**A.** inactive

**Q.** Which Potency does the source give for `Cc1nc(CN2C(=O)OC3(CCN(C(=O)c4cccnc4)CC3)C2(C)c2ccccc2)cs1` (stereo unspecified) here?
**A.** inactive

**Q.** For `COCCN1CC(C(=O)N2CCN(c3ncccc3C#N)CC2)CCC1=O` (stereo unspecified), which Potency is on record?
**A.** inactive

**Q.** For `COCCn1c(C)cc(C(=O)N2CCc3nn(CCOC)c(=O)n3CC2)c1C`, which Potency is on record?
**A.** inconclusive: 1.12 µM [rising, full curve, poor fit]

**Q.** Which Potency does the source give for `CCCC(=O)N1CC2(CCCN2C2COC2)Cc2ccccc21` (stereo unspecified) here?
**A.** inconclusive: 8.91 µM [cytotoxic, partial curve, poor fit]

**Q.** For `O=S(=O)(NCc1cccnc1Oc1ccc(F)cc1F)c1cccnc1`, which Potency is on record?
**A.** inconclusive: 3.55 µM [rising, full curve, poor fit]

**Q.** For `Cc1nnc(NC(=O)c2nc(S(=O)(=O)Cc3ccccc3)ncc2Cl)s1`, which Potency is on record?
**A.** inconclusive: 22.4 µM [cytotoxic, partial curve, poor fit]

**Q.** With `O=C([C@@H]1C[C@H](F)CN1C(=O)Nc1cccc(C(F)(F)F)c1)N1CCc2ccccc2C1` as the compound, how does the Potency read?
**A.** inactive

**Q.** With `COc1ccc(C)cc1NC(=O)N1CCCC2(C1)Nc1cccnc1NC2=NC1CCCC1` (stereo unspecified) as the compound, how does the Potency read?
**A.** inconclusive: 28.2 µM [cytotoxic, partial curve, poor fit]

**Q.** With `Cc1cc(F)ccc1NC(=O)c1cnc(-c2ccc(F)cc2)nc1-c1ccncc1` as the compound, how does the Potency read?
**A.** inconclusive: 15.8 µM [cytotoxic, partial curve, poor fit]

**Q.** Which Potency does the source give for `COC[C@@H]1CN(Cc2cccc(C(F)(F)F)c2)C[C@H]1C(=O)NC1CC1` here?
**A.** inconclusive: 1.26 µM [rising, full curve, poor fit]

**Q.** For `O=C(NCC1CCCO1)c1csc(N2CCN(c3ccc(Cl)cc3)CC2)n1` (stereo unspecified), which Potency is on record?
**A.** inconclusive: 28.2 µM [cytotoxic, single point]

**Q.** Which Potency does the source give for `CCN(CC)C(=S)SSC(=S)N(CC)CC` here?
**A.** inconclusive: 764 nM [cytotoxic, full curve, poor fit] and inconclusive: 31.6 µM [cytotoxic, single point]

**Q.** For `O=C(c1cc(-c2cccc(C(F)(F)F)c2)c2nncn2n1)N1CCN(Cc2ccccc2)CC1`, which Potency is on record?
**A.** inactive

**Q.** Which Potency does the source give for `COc1cc(CCc2cc(NC(=O)c3ccc(N4C[C@@H](C)N[C@@H](C)C4)cc3)n[nH]2)cc(OC)c1` here?
**A.** inconclusive: 30.4 µM [cytotoxic, partial curve, poor fit]

**Q.** For `Cc1ccc(CN(C)Cc2ccc(-c3ccccc3)cc2)cc1`, which Potency is on record?
**A.** inconclusive: 10 µM [rising, full curve, poor fit]

**Q.** With `C1CCC(COCCc2noc(C3CNC3)n2)C1` as the compound, how does the Potency read?
**A.** inconclusive: 25.1 µM [cytotoxic, partial curve, poor fit]

**Q.** Which Potency does the source give for `CN(C)CC=CC(=O)Nc1cc2c(Nc3ccc(F)c(Cl)c3)ncnc2cc1O[C@H]1CCOC1` here?
**A.** inconclusive: 17.1 µM [cytotoxic, partial curve]

**Q.** For `CCOc1ccc(C2c3c(-c4ccccc4O)n[nH]c3C(=O)N2Cc2ccncc2)cc1` (stereo unspecified), which Potency is on record?
**A.** inconclusive: 14.1 µM [cytotoxic, partial curve, poor fit]

**Q.** For `O=c1c(-c2cc(F)cc(F)c2)nc2cnc(N3CCOCC3)nc2n1-c1ccccc1`, which Potency is on record?
**A.** inconclusive: 14.1 µM [rising, partial curve, poor fit]

**Q.** Which Potency does the source give for `COc1ccccc1-c1csc(CN2CC(C)(NC(=O)C3CC3)C2)n1` here?
**A.** inactive

**Q.** Which Potency does the source give for `Cc1noc(C)c1[S+](=O)([O-])N1CCCC2(COc3ccccc3C(=O)N2)C1` (stereo unspecified) here?
**A.** inconclusive: 35.5 µM [cytotoxic, single point]

**Q.** Which Potency does the source give for `Cc1cc2nc3c(=O)n(C)c(=O)n(C)c3nc2cc1N=CN(C)C` here?
**A.** inconclusive: 39.8 µM [rising, partial curve, poor fit]

**Q.** For `Cc1cccc(OCCc2noc(C3CCN(C(=O)CN4CCCC4=O)C3)n2)c1` (stereo unspecified), which Potency is on record?
**A.** inconclusive: 25.1 µM [cytotoxic, single point]

**Q.** Which Potency does the source give for `COCC1CN(C)CC12CCN(C(=O)CCCc1ccccc1)CC2` (stereo unspecified) here?
**A.** inactive

**Q.** Which Potency does the source give for `CN(C)c1ccc(C(=O)N2CCC(n3cc(-c4nc(-c5ccccc5)no4)nn3)CC2)cc1` here?
**A.** inconclusive: 2.82 µM [rising, full curve, poor fit]

**Q.** For `COCCN1Cc2ccc(NCc3ccccc3)nc2C(C)(C(=O)Nc2ccccc2)C1` (stereo unspecified), which Potency is on record?
**A.** inconclusive: 56.2 µM [cytotoxic, partial curve, poor fit]

**Q.** Which Potency does the source give for `O=C(NCc1ccc(F)cc1)C1CCc2nnc(-c3cccc(C(F)(F)F)c3)n21` (stereo unspecified) here?
**A.** inactive

**Q.** With `O=C1Nc2ccccc2CC12CCCN2Cc1ccc(C(F)(F)F)cc1` (stereo unspecified) as the compound, how does the Potency read?
**A.** inconclusive: 35.5 µM [cytotoxic, single point]

**Q.** Which Potency does the source give for `COCCNC(=O)c1ccc2c(c1)N(Cc1cccc(Cl)c1)C(=O)c1ccccc1S2=O` (stereo unspecified) here?
**A.** inconclusive: 1 µM [cytotoxic, partial curve, poor fit]
